From patent publication US20050249668A1, “Nir-fluorescent cyanine dyes, their synthesis and biological use” (priority 2002, published 2005) come the findings set out here.

Data set [1] is described as follows: Absorbance maxima and extinction coefficients of fluorochrome dyes (spectrophotometer). It counts as physicochemical. As to the method: All of the new NIR fluorochrome dyes were purified twice by preparative HPLC, using a preparative HPLC instrument (Rainin, Woburn. Mass.) with a C18-RP preparative column (Vydec, Hesperia, Calif.) (flow rate=6 ml/min; eluant A, water with 0.1% TFA; eluant B, 90% of acetonitrile and 10% of eluant A; starting at 90% A for 5 min and then a linear gradient over 40 min to 50% A). The instrument's dual HPLC detector was set at 240 and 360 nm. The dyes were collected, and solvent was removed using a speed-vac concentrator (Savant, Holbrook, N.Y.).
The K+ions of the potassium salts were replaced with H+ to generate the corresponding free acids by ion-exchange chromatography (cation-resin, Dowex-50, 8% cross-link, 100-200 mesh).
(§1) About 20 mg of each fluorochrome dye was dissolved in 100 ml of deionized water. The absorbance was measured individually in three dilutions of the stock solution in deionized water or in 95% ethanol, using a Hitachi U-3000 spectrophotometer to determine the extinction coefficient. The fluorescence emission maxima and intensities of the dyes were obtained using a Hitachi F-4500 fluorophotometer, using dilute solutions in water and exciting at both the main absorption peak as well the short-wavelength shoulder of the main absorption peak. In the cases of NIR2, NIR4, NIR6, and NIR8, the quantum yields were calculated relative to a standard solution of the commercially available fluorochrome Cy5.5 (Amersham-Pharmacia, Piscataway, N.J.) with quantum yield of 0.29. The calculations for NIR1, NIR3, NIR5, and NIR7 were performed relative to a standard solution of another commercially available fluorochrome, Cy7 (Amersham-Pharmacia), with a quantum yield of 0.28.

Data set [2] can be described thus: Fluorescence emission maxima and quantum yields of the dyes (fluorophotometer). It counts as physicochemical. The conditions noted are these: for Stokes shift / λmax,em: solvent water; for QY: water, relative to Cy5.5 (NIR2, NIR4) or Cy7 (NIR1, NIR3). As to the method: as §1

On to `CC1(C)C(=CC=CC=CC=CC2=[N+](CCCCS(=O)(=O)[O-])c3ccc(S(=O)(=O)[O-])cc3C2(C)C)N(CCCCS(=O)(=O)[O-])c2ccc(C(=O)O)cc21.[K+].[K+]` [NIR3], for which the “λmax,abs” value in data set [1] (solvent ethanol) worked out at 756 nm. Besides, in data set [1] (solvent water), the ε is given as 275,000 L mol^−1cm^−1 and the “λmax,abs” value is reported as 750 nm. Further, in data set [2], the Stokes shift is 27 nm, the “λmax,em” value turned out to be 777 nm and the QY is listed as 0.28.

On to `CC[N+]1=C(C=CC=CC=CC=C2N(CCCCS(=O)(=O)[O-])c3ccc(C(=O)O)cc3C2(C)C)C(C)(C)c2c1ccc1c(S(=O)(=O)[O-])cc(S(=O)(=O)[O-])cc21.[K+].[K+]` [NIR1], for which, in data set [1] (solvent water), the “λmax,abs” value was found to be 761 nm. For the same compound, the “λmax,em” value in data set [2] turned out to be 796 nm.

Take `CC1(C)C(=C/C=C/C=C/C2=[N+](CCCCS(=O)(=O)[O-])c3ccc(S(=O)(=O)[O-])cc3C2(C)C)N(CCCCS(=O)(=O)[O-])c2ccc(C(=O)O)cc21.[K+].[K+]` [NIR4]: the “λmax,abs” value in data set [1] (solvent ethanol) was determined as 654 nm. Also, in data set [1] (solvent water), the ε is listed as 260,000 L mol^−1cm^−1 and the “λmax,abs” value stood at 650 nm. Besides, in data set [2], the Stokes shift worked out at 21 nm, the “λmax,em” value is recorded as 671 nm and the QY was found to be 0.43.
